Measured values published in the supplement of paper PMC11417369.
The other results are listed elsewhere or left out.

What follows are sequences tested on PF3D7_0420300 AP2 domain 1 (GST-tagged) (assay: gcPBM binding intensity (ln(normalized median fluorescence intensity)); higher = stronger DNA binding).
Outline: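 The highest Masliner-normalised natural-log median intensity across replicate spots of either probe orientation is reported as binding intensity. GST-tagged P. falciparum DNA-binding domains expressed in E. coli were applied for 1 h to an Agilent 4 × 180k array of primer-extended double-stranded 36-bp intergenic genomic probes plus negative controls, and bound protein was detected with Alexa488 anti-GST antibody and scanned at 488 nm.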

**Q.** With “TGTAATAAATAGTACACACACACATATATATATATT [CACACA_site1388]” as the sequence, how does the “gcPBM binding intensity (ln)” value read?
**A.** 9.94

**Q.** For “AGATATGTTTTTAATTGTACATAAATACACAAATAT [XGTACX_site5981]”, which “gcPBM binding intensity (ln)” value is on record?
**A.** 9.12

**Q.** AAAGAATTATATAAGGTGCACGAATGTTTCTTTAAT was tested. Which “gcPBM binding intensity (ln)” value did it give?
**A.** 9.13

**Q.** “AAAAAAAAAAAAAAAAAAAAAATACATATATATATA [CACACA_negctrl_site290]” was tested. Which “gcPBM binding intensity (ln)” value did it give?
**A.** 9.07

**Q.** Which “gcPBM binding intensity (ln)” value does the source give for “ATATGTGTGTGTATTTGTACCCAATTTTTATATATA [XGTACX_site4948]” here?
**A.** 10.1

**Q.** For “TATAAATATATTTATACACACATTAGTGTATACATG [CACACA_site7397]”, which “gcPBM binding intensity (ln)” value is on record?
**A.** 9.39

**Q.** “AACTATAACTAAAAAAATCACATAAAATATTTTATT [TGCATGCA_negctrl_site363]” was tested. Which “gcPBM binding intensity (ln)” value did it give?
**A.** 9.28

**Q.** “TCGTGTTAAATTTTTACACACAAACTTGCAATAATT [CACACA_site3824]” was tested. Which “gcPBM binding intensity (ln)” value did it give?
**A.** 9.51

**Q.** For “AGGTGAAAAATATATAATAATGTAACAAAAAAAAAT [XGTACX_negctrl_site394]”, which “gcPBM binding intensity (ln)” value is on record?
**A.** 9.56

**Q.** “TTATGTTATAAATACACACACAAAAGAAAAAAAAAA [CACACA_site7414]” was tested. Which “gcPBM binding intensity (ln)” value did it give?
**A.** 9.86

**Q.** How did the “gcPBM binding intensity (ln)” value turn out when “TCCCATAATATTAGTAGTACTATTAATATTTTCAGG [XGTACX_site4925]” was run?
**A.** 9.07

**Q.** How did the “gcPBM binding intensity (ln)” value turn out when “TTCTCTATAAATGCTGCACACACATTTAATTATTTA [CACACA_site8828]” was run?
**A.** 9.69

**Q.** For “ATTTCTTTTTTTTCTTGTACACATATTAAATTTATG [XGTACX_site734]”, which “gcPBM binding intensity (ln)” value is on record?
**A.** 9.55

**Q.** “TCTAAACAAATTAATAAAATAAGTATTCAAAATTAT [CACACA_negctrl_site731]” was tested. Which “gcPBM binding intensity (ln)” value did it give?
**A.** 8.98

**Q.** How did the “gcPBM binding intensity (ln)” value turn out when “AATATTTATTTTTTTGCACACATATTTTACATTTTA [CACACA_site3182]” was run?
**A.** 9.82

**Q.** Which “gcPBM binding intensity (ln)” value does the source give for “GTAAAATTTCGGATTTGTACACATGGCTATGAAAAA [XGTACX_site939]” here?
**A.** 9.14

**Q.** How did the “gcPBM binding intensity (ln)” value turn out when “AAAAAGCAGGATTATACACACAAATATTTATATGTT [CACACA_site6634]” was run?
**A.** 9.66

**Q.** With “GCGTAGTTCGGAAGGGTGCTTTTTTGTTAATAAAAA [GTGCAC_site9592]” as the sequence, how does the “gcPBM binding intensity (ln)” value read?
**A.** 8.98

**Q.** For “ACATACGAAAATTGGAAGGATAGATAAAAAGAAAAT [CACACA_negctrl_site51]”, which “gcPBM binding intensity (ln)” value is on record?
**A.** 9.51

**Q.** For “ATATAAAAAAGAGGGAGTACTTGTAACAAAATAATA [XGTACX_site8679]”, which “gcPBM binding intensity (ln)” value is on record?
**A.** 9.55

**Q.** How did the “gcPBM binding intensity (ln)” value turn out when “GTACAGATGTAGTATGCATGTAATTATATATAAATT [TGCATGCA_site292]” was run?
**A.** 9.4

**Q.** Which “gcPBM binding intensity (ln)” value does the source give for “ACGTAGTAGGTATTATGTACATATTTATAAGTATAA [XGTACX_site7336]” here?
**A.** 9.16

**Q.** Which “gcPBM binding intensity (ln)” value does the source give for “ACATGTTCATAATTTTGTACATATTTTTATGAACAT [XGTACX_site3976]” here?
**A.** 9.18

**Q.** “TATATAAATGTATACACACACATATAAATATAAATA [CACACA_site6751]” was tested. Which “gcPBM binding intensity (ln)” value did it give?
**A.** 9.71

**Q.** How did the “gcPBM binding intensity (ln)” value turn out when “ATTCTAATTACATATACACACAAAGGTTCATAACAA [CACACA_site3076]” was run?
**A.** 9.42

**Q.** With “TTCCCATGTAATATTAAACACACACCCATATAACAC [CACACA_site7905]” as the sequence, how does the “gcPBM binding intensity (ln)” value read?
**A.** 9.76

**Q.** How did the “gcPBM binding intensity (ln)” value turn out when “TAACTACTAGAAAAAACACACAAAAAGTAAATATAT [CACACA_site2740]” was run?
**A.** 9.82

**Q.** For “TGATTTTTTTTTTTTTTTTTTTTTTTTTTAGTTTGC [CACACA_negctrl_site1057]”, which “gcPBM binding intensity (ln)” value is on record?
**A.** 8.77

**Q.** How did the “gcPBM binding intensity (ln)” value turn out when “TGTTTAACATTTATATGTACATATATTCACATATTA [XGTACX_site342]” was run?
**A.** 9.29

**Q.** For “TAAAATATAAGACACACACACATATATTTATATATC [CACACA_site6248]”, which “gcPBM binding intensity (ln)” value is on record?
**A.** 10.1

**Q.** With “TACCAAATCACCCCTTGTACCCATTTTAAAATTTTC [XGTACX_site396]” as the sequence, how does the “gcPBM binding intensity (ln)” value read?
**A.** 9.47

**Q.** With “ATAAACAGATCATATACATGCATATATGTAGAATAA [TGCATGCA_site157]” as the sequence, how does the “gcPBM binding intensity (ln)” value read?
**A.** 9.34

**Q.** How did the “gcPBM binding intensity (ln)” value turn out when “TCCATTCTATTTTTTACACACGTATGTAAATATTAT [CACACA_site2686]” was run?
**A.** 9.55

**Q.** How did the “gcPBM binding intensity (ln)” value turn out when “AGAATATATATAATAGTGCAATGTACAATGAACAAA [GTGCAC_site9577]” was run?
**A.** 9.38

**Q.** With “ACGAATTAAATGGATTAATATATATATGTATATTTA [CACACA_negctrl_site1512]” as the sequence, how does the “gcPBM binding intensity (ln)” value read?
**A.** 9.1

**Q.** For “CGCAACACTATTTGGGTGCTCTTCAAAAAAAAAAAA [GTGCAC_site9598]”, which “gcPBM binding intensity (ln)” value is on record?
**A.** 8.56

**Q.** How did the “gcPBM binding intensity (ln)” value turn out when “TTAAATACTTTTCGAAGTACATTATATATATAATAT [XGTACX_site7530]” was run?
**A.** 9.03

**Q.** Which “gcPBM binding intensity (ln)” value does the source give for “ATTTGCTTTTATTTTACACACTTGCTCCTGTTGTAC [CACACA_site1088]” here?
**A.** 10

**Q.** How did the “gcPBM binding intensity (ln)” value turn out when “AAAAAAAAATATATTGCACACCTCTCAATAAAAAAA [CACACA_site172]” was run?
**A.** 9.32

**Q.** “AATACATAAATATTTTGTACATATTATATAAAATAT [XGTACX_site1627]” was tested. Which “gcPBM binding intensity (ln)” value did it give?
**A.** 9.17

**Q.** Which “gcPBM binding intensity (ln)” value does the source give for “ATAAATGAAGATAAATTAAAAAAAAAAAAAAAAAAA [CACACA_negctrl_site992]” here?
**A.** 8.24

**Q.** “ATAACATACATAACAACACACAATATTTATATGTAT [CACACA_site210]” was tested. Which “gcPBM binding intensity (ln)” value did it give?
**A.** 9.71

**Q.** “GAATGTATTCATAAATGTACTTATAATATTATAATA [XGTACX_site3466]” was tested. Which “gcPBM binding intensity (ln)” value did it give?
**A.** 9.09

**Q.** With “CGACTTTTAAAATATACACACATATATATATATATA [CACACA_site825]” as the sequence, how does the “gcPBM binding intensity (ln)” value read?
**A.** 9.43

**Q.** “CTTGTACCTAGAAATACACACAATTATATAACTTAT [CACACA_site2838]” was tested. Which “gcPBM binding intensity (ln)” value did it give?
**A.** 9.47

**Q.** Which “gcPBM binding intensity (ln)” value does the source give for “CCACATGAGATGATTACACACATATAAATATTTACA [CACACA_site6222]” here?
**A.** 9.48

**Q.** How did the “gcPBM binding intensity (ln)” value turn out when “TATAAGAAAATAATGTGTACTAAATAATAAATGCAT [XGTACX_site1204]” was run?
**A.** 9.54

**Q.** For “ACTTTTTAATAATAATAATTATATATATATATATAT [TGCATGCA_negctrl_site459]”, which “gcPBM binding intensity (ln)” value is on record?
**A.** 9.23

**Q.** Which “gcPBM binding intensity (ln)” value does the source give for “ATATATATTTAATTTACACACAAAAAAAATTGTTGG [CACACA_site961]” here?
**A.** 9.49

**Q.** With “TATAAACAGACGAAAACACACATATGTAAATATATA [CACACA_site4428]” as the sequence, how does the “gcPBM binding intensity (ln)” value read?
**A.** 9.6

**Q.** Which “gcPBM binding intensity (ln)” value does the source give for “ATAAAAATAATATCATGTACATATGTGTATTGTATT [XGTACX_site1768]” here?
**A.** 9.29

**Q.** “TACAAAAAGTTATACACACACGTACCTATAAATAGA [CACACA_site6571]” was tested. Which “gcPBM binding intensity (ln)” value did it give?
**A.** 9.67

**Q.** How did the “gcPBM binding intensity (ln)” value turn out when “TATTTCTTTTGGTTGGTGCATAAAATAATACAATAT [GTGCAC_site9916]” was run?
**A.** 9.28

**Q.** “CAGACCTCTTTGTCATGTACATAAAAAAATAAAGAA [XGTACX_site7887]” was tested. Which “gcPBM binding intensity (ln)” value did it give?
**A.** 9.07

**Q.** With “TTATCCTATACAAGGGAAAAATAAAATAAAATAAAT [TGCATGCA_negctrl_site272]” as the sequence, how does the “gcPBM binding intensity (ln)” value read?
**A.** 9.19

**Q.** For “TAAAAAATATTATATACACACAGTATAAAAAAAAAT [CACACA_site4012]”, which “gcPBM binding intensity (ln)” value is on record?
**A.** 9.53
